B1: GPR68, Q15743 (parent)
chain: MGNITADNSSMSCTIDHTIHQTLAPVVYVTVLVVGFPANCLSLYFGYLQIKARNELGVYLCNLTVADLFYICSLPFWLQYVLQHDNWSHGDLSCQVCGILLYENIYISVGFLCCISVDRYLAVAHPFRFHQFRTLKAAVGVSVVIWAKELLTSIYFLMHEEVIEDENQHRVCFEHYPIQAWQRAINYYRFLVGFLFPICLLLASYQGILRAVRRSHGTQKSRKDQIQRLVLSTVVIFLACFLPYHVLLLVRSVWEASCDFAKGVFNAYHFSLLLTSFNCVADPVLYCFVSETTHRDLARLRGACLAFLTCSRTGRAREAYPLGAPEASGKSGAQGEEPELLTKLHPAFQTPNSPGSGGFPTGRLA

Variants of B1 are the subject of data set [1]. As to the kind of experiment: cAMP reporter score (Enrich2 score, wild type = 0); higher = more signal; HEK293T, FACS bins.
The variants in data set [2] derive from B1. In words: surface expression score (Enrich2 score, wild type = 0); higher = more signal; HEK293T, FACS bins.

The least precise scores are not listed. The source holds two more conditions with little spread; they are left out. Read del as a deletion of the residues named and ins as an insertion between two positions. For some of these results: How much ogerin was present is not stated here.

Take E291_T292insGSG: the cAMP reporter score in data set [1] (pH 5.5) is -1.6; in data set [1] (pH 6) it was 0.427; in data set [1] (pH 6, modulator: ogerin), -0.921; in data set [1] (pH 6.5, modulator: ogerin), -0.171. Moreover, in data set [2], the surface expression score was 0.391.
Taken in the same sequence, the figures for L285_Y286del were -1.76, -0.588, -1.54, -1.2 and -2.19.
In the same order, the values of T292_H294del are -1.64, -0.641, -1.58, -1.44 and 0.227.
Consider Y286_C287insGSG, for which the cAMP reporter score in data set [1] (pH 5.5) was -1.44; in data set [1] (pH 6), -0.851; in data set [1] (pH 6, modulator: ogerin), -1.55; in data set [1] (pH 6.5, modulator: ogerin), -0.83. Also, in data set [2], the surface expression score was -1.55.
Turning to S290_E291del, the cAMP reporter score in data set [1] (pH 5.5) was -1.68; in data set [1] (pH 6), -0.791; in data set [1] (pH 6, modulator: ogerin), -0.985; in data set [1] (pH 6.5, modulator: ogerin), -0.985. The surface expression score in data set [2] was -0.09.
As for F288_V289insGSG, the cAMP reporter score in data set [1] (pH 5.5) was -0.624; in data set [1] (pH 6), -0.626; in data set [1] (pH 6, modulator: ogerin), -1.43; in data set [1] (pH 6.5, modulator: ogerin), -1.19. For the same variant, the surface expression score in data set [2] was -1.76.
As to E291V, the cAMP reporter score in data set [1] (pH 5.5) was found to be 0.963; in data set [1] (pH 6, modulator: ogerin) it was 0.653; in data set [1] (pH 6.5, modulator: ogerin), 0.933.
Regarding E291G, the cAMP reporter score in data set [1] (pH 5.5) is -0.13; in data set [1] (pH 6) it was -0.097; in data set [1] (pH 6, modulator: ogerin), -0.633; in data set [1] (pH 6.5, modulator: ogerin), -0.784. Besides, the surface expression score in data set [2] was -0.524.
Turning to E291N, the cAMP reporter score in data set [1] (pH 5.5) is 0.131; in data set [1] (pH 6), -0.951; in data set [1] (pH 6, modulator: ogerin), -0.167; in data set [1] (pH 6.5, modulator: ogerin) it was -0.544. Moreover, the surface expression score in data set [2] was 0.145.
Turning to E291Q, the cAMP reporter score in data set [1] (pH 5.5) stood at 1.07; in data set [1] (pH 6, modulator: ogerin) it was 0.488; in data set [1] (pH 6.5, modulator: ogerin) it was 1.63. Also, in data set [2], the surface expression score was found to be 0.121.
Take E291R: the cAMP reporter score in data set [1] (pH 5.5) is 2; in data set [1] (pH 6, modulator: ogerin), -0.246; in data set [1] (pH 6.5, modulator: ogerin), -0.518. Also, the surface expression score in data set [2] is -0.425.
For the variant E291T, the cAMP reporter score in data set [1] (pH 5.5) was -0.721; in data set [1] (pH 6), -1.29; in data set [1] (pH 6, modulator: ogerin), -0.718; in data set [1] (pH 6.5, modulator: ogerin) it was -1.32. In addition, the surface expression score in data set [2] is -0.97.
Regarding E291Y, the cAMP reporter score is -0.732 in data set [1] (pH 5.5); -1.97 in data set [1] (pH 6); -1.04 in data set [1] (pH 6, modulator: ogerin); 0.458 in data set [1] (pH 6.5, modulator: ogerin). Also, the surface expression score in data set [2] was -1.66.
On to E291S, for which the cAMP reporter score is -0.083 in data set [1] (pH 5.5); 0.317 in data set [1] (pH 6); -0.272 in data set [1] (pH 6, modulator: ogerin); 0.188 in data set [1] (pH 6.5, modulator: ogerin). Further, the surface expression score in data set [2] is -0.247.
Turning to E291F, the cAMP reporter score was -0.923 in data set [1] (pH 5.5); -0.846 in data set [1] (pH 6, modulator: ogerin); -1.39 in data set [1] (pH 6.5, modulator: ogerin). Further, the surface expression score in data set [2] is -2.07.
Take E291H: the cAMP reporter score in data set [1] (pH 5.5) is -0.284; in data set [1] (pH 6), -0.867; in data set [1] (pH 6, modulator: ogerin) it was -0.366; in data set [1] (pH 6.5, modulator: ogerin), -1.14. In addition, the surface expression score in data set [2] is -0.591.
Take E291M: the cAMP reporter score in data set [1] (pH 5.5) was 0.592; in data set [1] (pH 6), -0.476; in data set [1] (pH 6, modulator: ogerin), -0.056; in data set [1] (pH 6.5, modulator: ogerin), -0.62. Besides, in data set [2], the surface expression score is -1.6.
Take E291I: the cAMP reporter score in data set [1] (pH 5.5) is -0.036; in data set [1] (pH 6.5, modulator: ogerin), -1.37. For the same variant, the surface expression score in data set [2] is -2.24.
Regarding E291D, the cAMP reporter score in data set [1] (pH 5.5) is 0.425; in data set [1] (pH 6) it was -1.26; in data set [1] (pH 6, modulator: ogerin), 0.346; in data set [1] (pH 6.5, modulator: ogerin), -0.249. Besides, the surface expression score in data set [2] stood at 0.927.
Consider E291A, for which the cAMP reporter score was 0.53 in data set [1] (pH 5.5); 0.924 in data set [1] (pH 6); 0.739 in data set [1] (pH 6, modulator: ogerin); -0.192 in data set [1] (pH 6.5, modulator: ogerin). Moreover, the surface expression score in data set [2] is -0.33.
On to E291P, for which the cAMP reporter score was -0.247 in data set [1] (pH 5.5); -0.451 in data set [1] (pH 6, modulator: ogerin); 0.183 in data set [1] (pH 6.5, modulator: ogerin). The surface expression score in data set [2] came out at 0.223.
As for E291K, the cAMP reporter score in data set [1] (pH 5.5) was -0.054; in data set [1] (pH 6, modulator: ogerin), 0.066; in data set [1] (pH 6.5, modulator: ogerin), 0.202.
Regarding E291W, the cAMP reporter score was 0.367 in data set [1] (pH 5.5); 0.445 in data set [1] (pH 6); 0.291 in data set [1] (pH 6, modulator: ogerin); -0.604 in data set [1] (pH 6.5, modulator: ogerin). For the same variant, the surface expression score in data set [2] is -1.73.
Turning to E291C, the cAMP reporter score in data set [1] (pH 5.5) was 1.42; in data set [1] (pH 6), 0.439; in data set [1] (pH 6, modulator: ogerin), 1.1; in data set [1] (pH 6.5, modulator: ogerin), -0.16. Further, the surface expression score in data set [2] was -0.359.
Take E291L: the cAMP reporter score in data set [1] (pH 5.5) is 0.26; in data set [1] (pH 6) it was 0.277; in data set [1] (pH 6, modulator: ogerin) it was -0.118; in data set [1] (pH 6.5, modulator: ogerin) it was -0.806. In addition, the surface expression score in data set [2] is -2.17.
Regarding V284_L285insG, the cAMP reporter score in data set [1] (pH 5.5) is -1; in data set [1] (pH 6, modulator: ogerin), -0.285; in data set [1] (pH 6.5, modulator: ogerin), -0.246.
Turning to V289del, the cAMP reporter score is -1.21 in data set [1] (pH 5.5); -0.719 in data set [1] (pH 6); -1.98 in data set [1] (pH 6, modulator: ogerin); -2.88 in data set [1] (pH 6.5, modulator: ogerin). In addition, the surface expression score in data set [2] was -0.409.
With F288_V289insG, the cAMP reporter score in data set [1] (pH 5.5) was -0.786; in data set [1] (pH 6) it was -0.467; in data set [1] (pH 6, modulator: ogerin), -0.772; in data set [1] (pH 6.5, modulator: ogerin), -1.33.
As to S290E, the cAMP reporter score in data set [1] (pH 5.5) is -0.735; in data set [1] (pH 6), -0.921; in data set [1] (pH 6, modulator: ogerin) it was -0.604; in data set [1] (pH 6.5, modulator: ogerin) it was -1.45. Moreover, the surface expression score in data set [2] was 0.097.
Take S290C: the cAMP reporter score in data set [1] (pH 5.5) was 1.2; in data set [1] (pH 6), 0.414; in data set [1] (pH 6, modulator: ogerin) it was 0.375; in data set [1] (pH 6.5, modulator: ogerin), 0.75. In data set [2], the surface expression score is -0.432.
In the case of S290F, the cAMP reporter score in data set [1] (pH 5.5) was -0.713; in data set [1] (pH 6), -0.535; in data set [1] (pH 6, modulator: ogerin), -1.03; in data set [1] (pH 6.5, modulator: ogerin), -0.888. In data set [2], the surface expression score is -0.572.
In the case of S290K, the cAMP reporter score was -1.17 in data set [1] (pH 5.5); -0.57 in data set [1] (pH 6); -1.08 in data set [1] (pH 6, modulator: ogerin); -1.23 in data set [1] (pH 6.5, modulator: ogerin). Moreover, in data set [2], the surface expression score is -0.916.
For S290A, the cAMP reporter score in data set [1] (pH 5.5) was -0.042; in data set [1] (pH 6) it was -1.13; in data set [1] (pH 6.5, modulator: ogerin) it was -0.319. Further, the surface expression score in data set [2] was -1.01.

The values above are taken from the GPR68 mutational scans of Howard et al. (2025).
